In patent US8282926B2, “CCR5-specific antibodies with HIV neutralizing activity that recognize a linear dodecapeptide that mimics a conformational epitope in the second extracellular loop of CCR5” (The United States of America, as Represented by the …, priority 2004, dated 2012):

Test system: mAb 2D7
Assay: Peptide preincubation with mAb 2D7 in fusion-inhibition assay
Type: cell-based, mouse
Conditions: 100-fold molar excess of peptide, PM1 cells; FIG. 5

Substance | effect of peptide preincubation on fusion inhibiting activity of mAb 2D7
E-W-Q-K-E-G-L-V-T-L-W-L-G-G-G-G-S-C (EWQKEGLVTLWLGGGGSC) [2D7-2SK] | significant reduction
F-C-A-L-D-G-D-F-G-W-L-A-P-A-C (FCALDGDFGWLAPAC) [MD23, reference compound] | did not block
